Over roughly 1,800 sequences, “median log2 fold change of GCK-ALFA target abundance (FLAG IP / Myc IP barcode read proportion)” has its median near 0.14; the lowest 2% begin near -0.84. Some of the results follow.
T1: TRAF2, Q12933
T1 chain: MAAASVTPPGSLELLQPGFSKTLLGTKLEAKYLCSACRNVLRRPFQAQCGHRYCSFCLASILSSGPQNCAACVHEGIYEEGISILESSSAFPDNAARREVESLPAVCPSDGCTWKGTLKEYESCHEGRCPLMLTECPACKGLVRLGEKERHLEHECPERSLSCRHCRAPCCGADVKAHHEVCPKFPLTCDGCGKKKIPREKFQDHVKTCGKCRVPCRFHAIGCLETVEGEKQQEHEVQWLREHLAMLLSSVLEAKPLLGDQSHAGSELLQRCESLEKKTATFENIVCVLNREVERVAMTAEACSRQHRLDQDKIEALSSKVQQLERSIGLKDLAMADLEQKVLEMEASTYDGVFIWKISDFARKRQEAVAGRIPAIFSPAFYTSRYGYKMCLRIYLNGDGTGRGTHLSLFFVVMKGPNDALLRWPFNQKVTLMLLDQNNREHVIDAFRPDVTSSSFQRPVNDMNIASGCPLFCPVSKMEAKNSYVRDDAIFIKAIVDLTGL

B1: traf2_out_8_174_2563 (protein)
chain: MEREKLKKAANLGLKYQEKIDEIKEKTEELRKKSLDEALKYTEEKGEELLKEIKEDEEKFKKTEDEELYKLLSRVLNSARTRVENLVEGTKILAEAEKKA
B2: traf2_out_1_27_990 (protein)
chain: SDKEITEKIKEASKKMANSSLEEKLEIAKELIREMAKVSKGDAATAAVILASVTKTEEEFEALLKAIKETFKELGWSEEEIEEIERKMRTMWELLKKAYA
B3: traf2_out_20_38_2004 (protein)
chain: SEEEEEEKRLEKIIQAANDALDAWEARFAALKAEGKSVEEIAEIAKEEIRRLLTAAGLEEEAEELVAQVDLVLDSPDAERLIARILARAAALVTQKKLQE
B4: traf2_out_12_187_960 (protein)
chain: SVADELREAAEAAYRAARAALEKLAPTDPAAQELLARLERAAELMRRHPELASDLLVAASAVLRWVRLVEEGAPAEERAAALAAARAALDEALERGARLE
B5: traf2_out_20_3_2086 (protein)
chain: MELEEELEKEIERAIKLLKEAAKLSDEETAKVLEELIKKIKESRELPLEDRLVVLSEVRREVLLLAQKAKEEGKEELAKLLEEAADELNEAMNLIMKLIE
B6: traf2_out_14_149_1232 (protein)
chain: SAEQEKLRAAAEINAEIAAALDEVLALLDAGKVEEAKALLRATIAELRARGAAHGITVSGLFVLEEILALLDTDVEAAKAAAAAARARARNAAEAFREMA
B7: traf2_out_17_162_1519 (protein)
chain: SPLEEELAALEAELAALEAQLAALEAKLADLDKMSKEELTDLLVEASEARRRARELAERLRRLRPLIGEERAGALIARAEAIADRLNAIANKIYKELEKK
B8: traf2_out_20_38_2048 (protein)
chain: SAEEEERRENELIRQAAREADERADERLAARRAAGVSDEEILRETTEEAVRRLEAIGAEDNAERIRLRAAHYREEGTYLKGAEEIIISAEVAIAVQKQLK

Biological target: T1, TRAF2, Q12933
Test: median log2 fold change of GCK-ALFA target abundance (FLAG IP / Myc IP barcode read proportion) (log2 ratio); each designed protein is fused to an ALFA-tag nanobody in HEK293 cells to bring the named protein to FLAG-tagged glucokinase (GCK); Myc marks an untargeted standard; higher = target protein stabilised (more abundant)
Conditions: target protein: 3xFLAG-MCP-GCK-ALFA reporter; HEK293 landing pad (RPLP)
Method in brief: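 The readout is target abundance, the per-binder median log2 ratio of FLAG to Myc barcode read proportions. It came from HEK293 landing-pad cells carrying a recombined ALFA-nanobody-fused binder library, induced with 2 μg mL^−1 doxycycline and transfected with a plasmid for a FLAG-tagged target and a Myc-tagged standard. After 48 h, lysates were immunoprecipitated with anti-FLAG and anti-Myc, and circular RNA barcodes were reverse transcribed, amplified and sequenced. Each barcode needed a proportion of at least 10^−7 in both replicates and each binder at least 3 barcodes per replicate, a pseudocount of 10^−6 was added, and the replicates were pooled.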

Row | Binder | median log2 fold change
1 | B1 | 0.207
2 | B2 | -0.169
3 | B3 | -1.04
4 | B4 | -0.00248
5 | B5 | -0.0607
6 | B6 | 0.339
7 | B7 | -0.109
8 | B8 | 0.215

From the supplement of paper PMC12632987
